Test results from PubChem BioAssay (NCATS).
The inconclusive results got no clear call from the source; some entries with a clear call stand among them for comparison. Potencies of inconclusive entries are doubtful fits and often do not repeat. Activity calls are given as the source filed them. Calls follow the shape of the dose curve; as a rule, active = well fitted cell-killing curve with a large enough effect; inconclusive = small, poorly fitted or top-dose-only effect, or effect the other way; inactive = no such curve, though single readings can be large or run the other way.

Assay: Viability qHTS for spleen associated tyrosine kinase inhibitor (SYKi) naive MV4-11 cells (AID 1963823); also: nearly all actives have a fitted effect of over 40% in size
Settings: MV4-11 AML viability, CellTiter-Glo luminescence, 72 h; series mostly up to 45 µM
Procedure, shortened: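 Cells: MV4-11, SYK inhibitor naive, 500 per well. Treatment: library compounds, 72 hr, 37 C, 5% CO2. Read-out: CellTiter-Glo luminescence after 10 min RT.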
Potency is read from the fitted curve at half-maximal effect; tags tell the direction and shape of the fitted curve.

SMILES	Potency
CC(=O)N[C@H]1CCN(c2ccc(C3=NOC(CN[S+](=O)([O-])C(C)C)C3)cc2F)C1 (stereo partly specified)	inactive
C[C@@H]1C/C=C/C=C\C=C\C=C\[C@H](O[C@@H]2O[C@H](C)[C@@H](O)[C@H](N)[C@@H]2O)C[C@@H]2O[C@](O)(C[C@@H](O)C[C@H]3O[C@@H]3/C=C/C(=O)O1)C[C@H](O)[C@H]2C(=O)O	inactive
CC(=O)NC(C)c1cnc(-c2cnc(Oc3ccc(OC(C)C)cc3)s2)s1 (stereo unspecified)	inconclusive: 8.2 µM [cytotoxic, partial curve]
CC(=O)Nc1ccc(OCCOCCOc2ccc(NC(C)=O)cc2)cc1	inactive
Cn1c(=O)c2nc(/C=C/c3cccc(Cl)c3)n(C)c2n(C)c1=O	inactive
Nc1ccc(-c2cnc(N)c(-c3ccc(Cl)cc3)c2)cn1	active: 5.8 µM
CC(C)=CCC/C(C)=C/Cc1ccc(O)c(C2OC(=O)c3cc(C(=O)O)cc(O)c32)c1O (stereo unspecified)	inactive
COC(=O)C1=CO[C@@H](O[C@@H]2O[C@H](CO)[C@@H](O)[C@H](O)[C@H]2O)/C(=C\CO)[C@@H]1CC(=O)OCCc1ccc(O)cc1	inconclusive: 2.24 µM [cytotoxic, single point]
CCC1OC(=O)C(C)CC(C)C(=O)/C(C)=C/C(C)C(=O)/C=C/C1(C)O (stereo unspecified)	inactive
O=C(O)CCCCCC[C@H]1C(=O)NC(=O)N1CC[C@@H](O)C1CCCCC1	inconclusive: 0.651 µM [cytotoxic, full curve]
CC1(C)C[C@H]2C3=CCC4[C@@]5(C)CC[C@H](O[C@H]6O[C@H](C(=O)O)[C@@H](O)[C@H](O)[C@H]6O[C@H]6O[C@H](CO)[C@@H](O)[C@H](O)[C@H]6O[C@@H]6O[C@H](CO)[C@@H](O)[C@H](O)[C@H]6O)[C@](C)(CO)C5CC[C@@]4(C)[C@]3(C)CC[C@@]2(C)[C@H](O[C@@H]2OC[C@H](O)[C@H](OC3O[C@H](CO)[C@@H](O)[C@H](O)[C@H]3O)[C@H]2O)[C@@H]1O (stereo partly specified)	inconclusive: 2.75 µM [cytotoxic, partial curve, poor fit]
COc1cccc2c1CCC[C@H]2CN(C)CCc1ccc2ccoc2c1	inconclusive: 20.6 µM [cytotoxic, single point]
CCc1c(CC(N)=O)c2cc(OCCCP(=O)(O)O)ccc2n1Cc1ccccc1	inactive
NC1CCN(c2nc3c(cc2F)c(=O)c(C(=O)O)cn3-c2ccc(F)cc2F)C1 (stereo unspecified)	inactive
Cc1ccc(-c2nc(N)nc3c2nnn3Cc2cccc(CO[C@H]3CCOC3)n2)o1	inactive
Cc1ccc(S(=O)(=O)c2ccc([N+](=O)[O-])o2)cc1	active: 0.461 µM
Nc1ccc(C(=O)N2CC3CC(CN(Cc4ccccc4)C3)C2)cc1	inconclusive: 0.841 µM [rising, partial curve, poor fit]
Fc1ccc2[nH]c(CN3CCN(c4ccccn4)CC3)cc2c1	inconclusive: 18.4 µM [cytotoxic, partial curve]
Cc1cc(CS(=O)(=O)c2ccccc2)cc(OCc2ccc(CN3CCCC3CO)cc2)c1 (stereo unspecified)	inconclusive: 11.6 µM [cytotoxic, partial curve]
COc1cc(O)c2c(=O)c(O)c(-c3ccc(O)c(O)c3)oc2c1	inconclusive: 5.8 µM [cytotoxic, partial curve]
CNc1cc2c(Nc3cccc(Br)c3)ncnc2cn1	active: 18.4 µM
C[C@@H]1CCC2C(C)(C)[C@H](O)CC[C@]2(C)[C@@]12Cc1c(O)cc3c(c1O2)CNC3=O (stereo partly specified)	inactive
O=C(c1ccc(F)c(F)c1Nc1ccc(I)cc1F)N1CC(O)(C2CCCCN2)C1 (stereo unspecified)	active: 0.184 µM
C[C@@]12CC[C@@H]3[C@@](CC[C@H]4[C@@]3(C)CCC[C@@]4(C)C(=O)O)(CC1=O)C2	inconclusive: 20.6 µM [cytotoxic, partial curve]
C=C1CO[C@@]2(O[C@H]3CC4C5CC=C6C[C@@H](O)C[C@@H](O[C@@H]7OC[C@H](O)[C@H](O[C@@H]8OC[C@@H](O)[C@H](O)[C@H]8O)[C@H]7O[C@@H]7O[C@@H](C)[C@H](OC(C)=O)[C@@H](OC(C)=O)[C@H]7OC(C)=O)[C@]6(C)C5CC[C@]4(C)[C@@H]3[C@@H]2C)[C@@H](O)[C@H]1OC1OC(C)C(O)C(O)C1O (stereo partly specified)	inconclusive: 0.977 µM [cytotoxic, full curve]
N=C(N)N	inconclusive: 16.8 µM [cytotoxic, single point]
